Reference: the supplement of paper PMC3334620
Over roughly 33,000 sequences, “E-score (-0.5 to 0.5)” has its median near -0.013; the highest 2% begin near 0.3. Some of the results follow.

Biological target: T1, Msn1 (UniProt P22148)
T1 sequence: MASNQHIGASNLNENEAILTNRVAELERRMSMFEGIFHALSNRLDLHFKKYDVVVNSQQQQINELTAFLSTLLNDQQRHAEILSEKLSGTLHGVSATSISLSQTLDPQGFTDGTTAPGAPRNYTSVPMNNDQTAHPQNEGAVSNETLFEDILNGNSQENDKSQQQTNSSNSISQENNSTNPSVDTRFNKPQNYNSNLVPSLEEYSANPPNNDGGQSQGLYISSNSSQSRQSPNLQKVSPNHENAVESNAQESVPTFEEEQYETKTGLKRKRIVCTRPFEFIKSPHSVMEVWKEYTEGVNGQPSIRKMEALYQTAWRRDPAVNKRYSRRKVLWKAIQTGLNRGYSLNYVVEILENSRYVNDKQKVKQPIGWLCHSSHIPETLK
Assay: PBM E-score (8-mer binding enrichment) (E-score (-0.5 to 0.5)); higher = stronger / more preferred TF binding; most listed sequences are background and not binding sites
Details: protein concentration: 200 nM; construct: GST-full length
Method in brief: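 Yeast transcription factors carrying a GST tag, as full-length proteins or DNA-binding domains, were produced by PURExpress in vitro transcription/translation. About 100-200 nM protein was applied to universal all-10-mer Agilent arrays, double-stranded by primer extension on fresh or once-stripped slides. Bound protein was detected with fluorescent anti-GST, and scans were normalised with masliner. The Universal PBM Analysis Suite gave each ungapped eight-base word, pooled with its reverse complement, an E-score, a modified Wilcoxon-Mann-Whitney statistic.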

Sequence | PBM E-score
GAAGCAGA | -0.178
GAAGCCAC | -0.105
GATGAATA | 0.069
AGGTACGA | -0.0249
CACACTTC | 0.102
CCCGTCAA | -0.133
AGTAGACA | 0.228
CATTGCCG | 0.0253
AACCTAAA | 0.121
AGATGATA | 0.259
AGCAGGAG | -0.123
ATTGTGTA | 0.14
AGAGTCAG | -0.0137
GTGTCGAA | 0.0799
CCACCACA | -0.214
AACAAAGG | 0.00627
CCGACTTA | 0.168
CTTTTTGA | 0.135
CCTTGACA | 0.0303
ACTTAGCC | -0.0569
CGCTGTTA | -0.124
AATGTGTG | 0.0774

Sequence | PBM E-score
ACATATCT | 0.142
AGTGGGTG | -0.0455
AACCCTGG | -0.207
AAATTCAA | 0.255
ACACTACT | 0.101
CGAATCCC | -0.0406
CATCCTAA | 0.139
ACACAAGC | 0.0155
TGACTTAA | 0.071
ACTGCCAG | 0.0417
GGTCTTAA | -0.174
AACACGTG | 0.105
ATACCCAT | -0.0499
CTTTGTAC | 0.322
TCTTGAAA | 0.194
CTAGGCCA | -0.129
GAGAATAC | 0.151
CATGACAA | 0.383
CAGCCAGG | -0.216
CCTCTAGC | -0.169
ACGCCATA | -0.00323
CCGCATGA | -0.101

Sequence | PBM E-score
AAGCCGCG | 0.0745
CCCCGTCC | -0.379
AATGGACC | 0.0605
ATAGTATC | 0.119
AGCAAGTA | 0.0366
ACCTGATG | -0.0993
AAAACGCA | 0.0199
ACATTTGC | 0.258
ACAGAATG | 0.0899
GGCCGCTA | -0.127
ACAACCCG | 0.0775
AATTCGGG | 0.0723
AAAGCCAG | -0.0679
AGGGTTAA | -0.17
CTGAGGAA | -0.159
CTGCTATC | 0.0175
GGTCTTGA | -0.084
GACTTGGA | -0.0767
CGGTCTGC | -0.139
AATTCCAT | 0.216
CGACGAAA | 0.115
GATAACCC | -0.0931

Sequence | PBM E-score
ATTGTCCC | 0.462
ACCCGGTG | -0.27
CAAATGGC | 0.173
ACGATGAA | 0.0016
CGTTGGAC | 0.0323
ACGGTGGC | -0.149
AAAGAAGA | -0.0588
AACGCAGG | -0.221
CCGGTATC | -0.217
CTATCGAA | 0.0197
AACCACCG | 0.0326
ACGCGGAA | 0.047
GTACTTCA | 0.165
ACCGTAGA | -0.0668
AAGGGCGG | -0.21
CGTACACG | 0.152
AGCACTCA | -0.193
GACATTTA | 0.474
CATCATCA | -0.01
CATCTCAG | 0.00542
